Among all 48,000 compounds or so, about 120 (0.25%) were called active. About 4% were inconclusive and are not listed. Calls follow the shape of the dose curve; as a rule, active = well fitted activation curve with a large enough effect; inconclusive = small, poorly fitted or top-dose-only effect, or another doubt; inactive = no such curve, though single readings can be large or run the other way. The list shows a part of the results.
Experiment: Primary qHTS for Identification of Small Molecule Activators of Huntingtin-Antisense Promoter Activity; also: nearly all actives have a fitted effect of over 55% in size
Conditions: HEK293 HTT-AS promoter firefly luciferase reporter (activity 0% = vehicle and -100% = no light), 24 h; series mostly up to 57.5 µM; activity change, positive = activation: at the top concentration
Summary of the method: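 HEK293 luciferase promoter-reporter cells (2,500/well) plated 24 h, then compounds added at up to 57.5 uM final for 24 h at 37 °C. Firefly luminescence by Dual-Glo, normalized to vehicle (0%) and zero RLU (-100%).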

Activity change, positive = activation, inactive:
COc1cc(OC)cc(-c2nc3n(n2)C(c2ccccc2F)C(C(=O)Nc2cccnc2)=C(C)N3)c1 (stereo not given) -24.6%
Cc1ccc(S(=O)(=O)NCC(c2ccc(N(C)C)cc2)N2CCCC2)cc1 (stereo not given) -12.9%
Cc1cc(C)cc(NC(=O)C2CCCN(c3nnc(C)c4c(C)n(-c5ccccc5)nc34)C2)c1 (stereo not given) -12.9%
CCOC(=O)Cn1c(=O)oc2cc(S(=O)(=O)N3CCN(c4ccc(Cl)cc4)CC3)ccc21 -17.2%
CCOC(=O)C1CCN(C(c2ccccc2)c2c(O)cc(C)n(Cc3ccco3)c2=O)CC1 (stereo not given) 1.82%
O=C(CSc1nccn1Cc1ccco1)Nc1cccc(F)c1 14.6%
CCc1c(C)c2ccc3c(c2oc1=O)CN(Cc1ccccc1)CO3 -21.9%
COc1ccc(OCC(=O)Nc2nnc(S(=O)(=O)N3CCCCCC3)s2)cc1 -7.66%
Cc1ccc(-n2c(CCC(=O)O)ccc2-c2cccs2)cc1C 14.3%
CCC(CC)C(=O)Nc1cccc(-c2nc3cccnc3s2)c1C -14.8%
COc1ccc(-n2nc3ccc(NC(=O)c4cc5ccccc5o4)cc3n2)cc1Cl -0.878%
COc1ccccc1-c1nc(S(=O)(=O)c2ccc(Cl)cc2)c(N2CCCCCC2)o1 -28.6%
CC1(C)O[C@H]2[C@@H](O1)[C@@H](C(=O)Nc1ccccc1O)O[C@@H]1OC(C)(C)O[C@@H]12 -12%
CCc1ccc(-c2nn(CC(=O)NC3CCCC3)c3c2cnc2ccc(C)cc23)cc1 -0.857%
CCOc1cc(C2C(C(=O)OC)=C(C)NC3=C2C(=O)c2ccccc23)ccc1O (stereo not given) -16.2%
O=C(Nc1ccc(N2CCC(N3CCCCC3)CC2)c(C(=O)O)c1)c1ccc(Br)cc1 0%
FC(F)(F)c1ccccc1-n1ccnc1 0.993%
Cc1cccc(/C=C/c2onc(C)c2S(=O)(=O)N2CCC(C(=O)N3CCC(C)CC3)CC2)c1 -10.3%
Cc1ccc(C(C)C)c(OCC(=O)Nc2c(C(=O)c3ccccc3)oc3ccccc23)c1 -4.2%
Cc1ccc(NC(=O)Cn2c(=O)n(Cc3ccccc3)c(=O)c3c(C)c(C)sc32)c(C)c1 8.92%
CCC(Cc1ccccc1)NC(=O)c1ccc2nc(N3CCC(C)CC3)sc2c1 (stereo not given) -71%
CCc1ccccc1NC(=O)C1=CC(c2ccc(OC)c(OC)c2)=NS(=O)(=O)N1C -26.7%
CCOC(=O)c1ccc(-n2c(N)c(C(=O)OC)c3nc4ccccc4nc32)cc1 -19.8%
Cc1cccc(C)c1OCC(=O)NCC1(N2CCOCC2)CCCCC1 -29.2%
COc1ccc(OC(=O)c2nc(SCc3ccc(C)cc3)ncc2Cl)cc1 -0.158%
O=C(CN1C(=O)COc2ccc(S(=O)(=O)N3CCCCC3)cc21)NCc1ccc(F)cc1 3.51%
Cc1ccc(-c2nc(C)c(CCNC(=O)C(=O)Nc3ccc4c(c3)OCCO4)s2)cc1 5.73%
CCOc1ccc(N(CC(=O)Nc2ccc(F)cc2F)S(=O)(=O)c2c(C)[nH]c(=O)[nH]c2=O)cc1 -12%
CN1C(=O)c2ccccc2Sc2ccc(NC(=O)Nc3ccccc3F)cc21 -15.9%
COc1ccc(CNC(=O)C(=O)NCC(c2cccs2)S(=O)(=O)c2ccc(F)cc2)cc1 (stereo not given) -34.4%
COc1ccc(CN(CCC(c2ccc3c(c2)OCO3)c2ccccc2OC)C(C)=O)cc1 (stereo not given) -31.5%
CCOCCCn1c(=N)c(S(=O)(=O)c2ccc(C)cc2)cc2c(=O)n3cccc(C)c3nc21 -4.16%
O=C(NCC(c1ccc2c(c1)OCO2)N1CCN(c2ccccc2)CC1)c1ccccc1F (stereo not given) 10.1%
CCOC(=O)c1ccc(OCC2c3cc(OC)c(OC)cc3CCN2C(=O)Cc2ccc(F)cc2)cc1 (stereo not given) -26.1%
CC(=O)N1CCCc2cc(S(=O)(=O)N(C)CC(=O)Nc3ccc(F)cc3Cl)ccc21 -27.2%
Cc1ccc(CN2C(=O)c3ccccc3C2C(=O)NC2CCCCCC2)cc1 (stereo not given) -10.7%
CCc1ccc(-n2nc(C)c3c(C(=O)Nc4cccc(C(F)(F)F)c4)cc(C)nc32)cc1 -20.2%
Cc1cc(O)c(C(c2ccc(F)cc2)N2CCCCC2)c(=O)n1Cc1ccco1 (stereo not given) -6.37%
Cc1cc(Nc2cccc(C(F)(F)F)c2)nc2ccc(NC(=O)c3ccc(N(C)C)cc3)cc12 -14.5%
CCOc1ccccc1NC(=O)c1c(C)cc(C)nc1SCC(=O)c1cccc(OC)c1 -12.7%
COc1ccc(CNC(=O)CCn2nc(C)c3c(C)n(-c4ccccc4)nc3c2=O)cc1OC 3.84%
Cc1cccn2c(=O)c(/C=C(\C#N)c3nc4ccccc4n3C)c(Oc3ccc(Br)cc3)nc12 -12%
O=C(CN1CCN(c2ccc(Cl)cc2)CC1)Nc1ccc(F)cc1F 15.5%
Cc1ccc(NC(=O)CCCn2nc(C)c3c(C)n(-c4ccccc4)nc3c2=O)cc1Cl 3.96%
Cc1cc(C)cc(NC(=O)CSc2nccn2-c2ccccc2)c1 -26.3%
Cc1cc(Br)ccc1NC(=O)c1cc2c(=O)n(C)c3cc(Cl)ccc3c2s1 -2.36%
O=C(NC1CC(=O)N(c2ccccc2)C1)C1CCCCC1 (stereo not given) -10.2%
Cc1cccc2nc(-c3cccnc3)c(Nc3ccc(C(C)C)cc3)n12 -33.4%
COc1ccc(NC(=O)C2=C(C)Nc3nc(SCc4ccccc4C)nn3C2c2ccc(Br)cc2)cc1 (stereo not given) -9.25%
Cc1cccc(NC(=O)C2CCN(S(=O)(=O)c3cccc4nsnc34)CC2)c1C -20.7%
NCCCC[C@H](N[C@@H](CCc1ccccc1)C(=O)O)C(=O)N1CCC[C@H]1C(=O)O -0.098%
Cc1ccc(-c2cc(N)n3nc(-c4ccc(C)cc4)cc3n2)cc1 5.23%
CCOC(=O)c1noc2ncnc(Nc3ccc(C)c(F)c3)c12 9.14%
CCOC(=O)c1noc2ncnc(N(CCC(=O)OC)c3ccccc3)c12 -12.6%
COc1ccc(OC)c(C2CC(=O)c3c([nH]c(C(=O)OC4CCC(C)CC4)c3C)C2)c1 (stereo not given) -19.5%
Cc1ccc2c(c1)sc1nc(=O)n(-c3ccc(Cl)cc3)c(=O)n12 15.3%
CN1CCN(CCCNC(=O)Cn2c(-c3cccs3)cc3ccccc32)CC1 -13.7%
CC(CC(=O)NCc1ccc(Cl)cc1)CC1=NS(=O)(=O)c2ccccc2N1 (stereo not given) -21.4%
O=C(Cn1cc(SCc2ccc(C(F)(F)F)cc2)c2ccccc21)N1CCCCC1 -6.13%
COc1ccc2c(CNCc3ccc(Cl)cc3)c(C(=O)O)n(Cc3ccccc3C)c2c1 -26.3%
CCc1cccc2c(-c3ccccc3)nc(SCC(=O)Nc3ccccc3)nc12 2.47%
COc1ccc(N2CCN(CCCNC(=O)C3COc4ccc(OC)cc4C3)CC2)cc1 (stereo not given) -24.1%
COc1ccc(-c2cc(C)no2)cc1S(=O)(=O)NCc1ccc(OC(C)C)cc1 -29.2%
CCCCOCCOc1nc(-c2ccc(C(=O)O)c(F)c2)sc1C 14.9%
COc1ccc(S(=O)(=O)c2cn(C)c3cc(N4CCCCC4)c(F)cc3c2=O)cc1 -15.2%
CC(=O)c1ccc(N2CCN(c3nc4c(S(=O)(=O)c5ccccc5)nnn4c4ccc(Cl)cc34)CC2)cc1 -1.21%
Cc1c(-c2nsc(NC(=O)c3ccc(Cl)cc3)n2)nnn1-c1ccc(C(C)C)cc1 -22.1%
COc1ccc2c(CNCc3ccc(C)o3)c(C(=O)O)n(Cc3ccccc3)c2c1 -18.8%
CCOc1cc(-c2nc(-c3ccc(-c4ccc(C)cc4)nc3OC)no2)cc(OCC)c1OCC -10.3%
COc1ccc(Cl)cc1NC(=O)Cn1c2ncccc2c(=O)n1-c1ccc(C)c(C)c1 -10.5%
Cc1cc(C)cc(N(CC(=O)Nc2cccc(C)c2C)S(=O)(=O)c2c(C)[nH]c(=O)[nH]c2=O)c1 -15.1%
COc1ccc(C2C=C(c3ccccc3)Nc3nc(NC(=O)c4ccc(C)cc4)nn32)cc1 (stereo not given) -11.7%
Cc1ccc(-n2nc3c(=O)n(CC(=O)Nc4ccccc4F)nc(C)c3c2C)c(C)c1 -32.6%
COC(=O)c1ccc(Cl)cc1NC(=O)N1CC(C)Oc2ccccc21 (stereo not given) -15.9%
CCOC(=O)c1ccc(NC(=O)c2cc3cc(C)ccc3n2C)cc1 -16.6%
Cc1ccc(NC(=O)Nc2nnc(N(C)Cc3ccccc3)s2)cc1 -12%
Cc1cc(NS(=O)(=O)c2ccc(NC(=O)COc3ccc(Cl)cc3)cc2)nc(C)n1 -12.4%
CN(C(=O)c1cc(-c2ccccc2O)on1)c1ccccc1 9.7%
COc1ccc(S(=O)(=O)N2CCC(c3ccncc3)CC2)cc1Cl -38.8%
CCCCOc1c(Cl)cc(C(=O)N(Cc2ccc(C)o2)C2CCS(=O)(=O)C2)cc1Cl (stereo not given) -64.8%
Cc1cc(C)c2oc(C(=O)N(Cc3ccc(F)cc3)C3CCS(=O)(=O)C3)cc(=O)c2c1 (stereo not given) -5.46%
CSc1ccc(CCNc2ncnc3onc(C)c23)cc1 -79.2%
CCOC(=O)c1c(C)oc2ccc(N(C(=O)Oc3ccccc3)S(=O)(=O)c3ccccc3)cc12 -7.95%
CCOc1ccc(/C=C(\C#N)c2nc(-c3cc4ccccc4oc3=O)cs2)c(OCC)c1 -7.5%
CCN1CCN(C(c2ccc(OC)cc2)c2c(O)cc(C)n(CCOC)c2=O)CC1 (stereo not given) -3.84%
COc1ccc(C(CNC(=O)COc2ccc(C)cc2)N2CCCCC2)cc1 (stereo not given) 8.68%
COc1ccccc1NC(=O)c1c(NCc2sccc2C)sc2c1CCCCC2 -5.58%
CN(C(=O)Cn1c(=O)n(CCCS(=O)(=O)C2CCCCC2)c(=O)c2ccccc21)c1ccccc1 -11.4%
CN(C)CCN(Cc1ccco1)S(=O)(=O)c1cc2c(cc1Cl)NC(=O)CO2 -9.49%
COc1ccccc1CCNC(=O)CCc1c(C)c2cc3c(C)coc3c(C)c2oc1=O -9.9%
O=C(Cn1c(=O)n(Cc2ccco2)c(=O)c2oc3ccccc3c21)Nc1ccc(F)cc1F -24.1%
Cc1cn2c(=O)cc(COc3ccc(NC(=O)c4cccc(F)c4)cc3)nc2s1 3.89%
Cc1nn(CCCC(=O)Nc2ccccc2C(F)(F)F)c(=O)c2c1sc1ccccc12 3.02%
COc1cccc(NC(=O)Nc2cc(-c3cn4cccnc4n3)ccc2C)c1 -23.8%
CCC(Sc1nnc(C)n2c1cc1occc12)C(=O)Nc1ccccc1F (stereo not given) -32.4%
